# Experimental data from the supplement of paper PMC8728848.
# Some of the results follow.
# What was measured:
# Experiment in all cases: glycan array binding signal (z-score within array); higher = stronger binding
# Conditions in all cases: glycan notation: IUPAC condensed, linker removed
# Neu5Ac(a2-8)Neu5Ac = target: Neu5Ac(a2-8)Neu5Ac
# Procedure, shortened: (§1)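 Glycan array binding is given as a within-array Z-score, which can be read as non-binding when negative. The arrays, 3228 of them, came from the Consortium for Functional Glycomics database and were retained only where the protein sequence was available. Z-scores were averaged across arrays of the same protein sequence at different concentrations or buffers and across linkers.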
# [1] = target: Neu5Ac(a2-8)Neu5Ac(a2-3)Gal(b1-3)GalNAc(b1-4)[Neu5Ac(a2-3)]Gal(b1-4)Glc
# Procedure, shortened: as §1
# [2] = target: Neu5Ac(a2-8)Neu5Ac(a2-3)Gal(b1-3)GalNAc(b1-4)[Neu5Ac(a2-8)Neu5Ac(a2-3)]Gal(b1-4)Glc
# Procedure, shortened: as §1
# [3] = target: Neu5Ac(a2-8)Neu5Ac(a2-3)Gal(b1-4)Glc
# Procedure, shortened: as §1
# [4] = target: Neu5Ac(a2-8)Neu5Ac(a2-3)Gal(b1-4)GlcNAc
# Procedure, shortened: as §1
# [5] = target: Neu5Ac(a2-8)Neu5Ac(a2-3)[Gal(b1-3)GalNAc(b1-4)]Gal(b1-4)Glc
# Procedure, shortened: as §1
# [6] = target: Neu5Ac(a2-8)Neu5Ac(a2-3)[GalNAc(b1-4)]Gal(b1-4)Glc
# Procedure, shortened: as §1
# [7] = target: Neu5Ac(a2-8)Neu5Ac(a2-8)Neu5Ac
# Procedure, shortened: as §1
# [8] = target: Neu5Ac(a2-8)Neu5Ac(a2-8)Neu5Ac(a2-3)Gal(b1-4)Glc
# Procedure, shortened: as §1
# [9] = target: Neu5Ac(a2-8)Neu5Ac(a2-8)Neu5Ac(a2-3)[Gal(b1-3)GalNAc(b1-4)]Gal(b1-4)Glc
# Procedure, shortened: as §1
# [10] = target: Neu5Ac(a2-8)Neu5Ac(a2-8)Neu5Ac(a2-3)[GalNAc(b1-4)]Gal(b1-4)Glc
# Procedure, shortened: as §1
# [11] = target: Neu5Ac(a2-8)Neu5Ac(a2-8)Neu5Ac(a2-8)Neu5Ac(a2-3)[GalNAc(b1-4)]Gal(b1-4)Glc
# Procedure, shortened: as §1
# [12] = target: Neu5Ac(a2-8)Neu5Gc(a2-3)Gal(b1-4)GlcNAc
# Procedure, shortened: as §1
# [13] = target: Neu5Ac(b2-6)Gal(b1-4)GlcNAc
# Procedure, shortened: as §1
# Neu5Ac(b2-6)GalNAc = target: Neu5Ac(b2-6)GalNAc
# Procedure, shortened: as §1
# [14] = target: Neu5Ac9Ac(a2-3)Gal(b1-3)GlcNAc
# Procedure, shortened: as §1
# [15] = target: Neu5Ac9Ac(a2-3)Gal(b1-4)GlcNAc
# Procedure, shortened: as §1
# [16] = target: Neu5Ac9Ac(a2-6)Gal(b1-4)GlcNAc
# Procedure, shortened: as §1
# [17] = target: Neu5Gc(a2-3)Gal(b1-3)GlcNAc
# Procedure, shortened: as §1
# [18] = target: Neu5Gc(a2-3)Gal(b1-3)[Fuc(a1-4)]GlcNAc
# Procedure, shortened: as §1
# Neu5Gc(a2-3)Gal(b1-4)Glc = target: Neu5Gc(a2-3)Gal(b1-4)Glc
# Procedure, shortened: as §1
# [19] = target: Neu5Gc(a2-3)Gal(b1-4)GlcNAc
# Procedure, shortened: as §1
# [20] = target: Neu5Gc(a2-3)Gal(b1-4)GlcNAc(b1-3)Gal(b1-4)GlcNAc(b1-2)Man(a1-3)[Neu5Gc(a2-3)Gal(b1-4)GlcNAc(b1-3)Gal(b1-4)GlcNAc(b1-2)Man(a1-6)]Man(b1-4)GlcNAc(b1-4)GlcNAc
# Procedure, shortened: as §1
# [21] = target: Neu5Gc(a2-3)Gal(b1-4)[Fuc(a1-3)]GlcNAc
# Procedure, shortened: as §1
# [22] = target: Neu5Gc(a2-6)Gal(b1-4)GlcNAc
# Procedure, shortened: as §1
# Neu5Gc(a2-6)GalNAc = target: Neu5Gc(a2-6)GalNAc
# Procedure, shortened: as §1
# [23] = target: Neu5Gc(a2-8)Neu5Ac(a2-3)Gal(b1-4)GlcNAc
# Procedure, shortened: as §1
# [24] = target: Neu5Gc(a2-8)Neu5Gc(a2-3)Gal(b1-4)GlcNAc
# Procedure, shortened: as §1
# [25] = target: Neu5Gc(a2-8)Neu5Gc(a2-3)Gal(b1-4)GlcNAc(b1-3)Gal(b1-4)GlcNAc
# Procedure, shortened: as §1
# [26] = target: Neu5Gc(a2-8)Neu5Gc(a2-6)Gal(b1-4)GlcNAc
# Procedure, shortened: as §1
# [27] = target: Neu5Gc(b2-6)Gal(b1-4)GlcNAc
# Procedure, shortened: as §1
binder,measurement,setting,value
Cohesin-hDC-ASGPR (Homo sapiens) (protein) LDDLDAVRIKVDTVNAKPGDTVRIPVRFSGIPSKGIANCDFVYSYDPNVLEIIEIEPGDIIVDPNPDKSFDTAVYPDRKIIVFLFAEDSGTGAYAITKDGVFATIVAKVKEGAPNGLSVIKFVEVGGFANNDLVEQKTQFFDGGANVGDTTEPATPTTPVTTPTTTDDLDAASQNSKFQRDLVTLRTDFSNFTSNTVAEIQALTSQGSSLEETIASLKAEVEGFKQERQAGVSELQEHTTQKAHLGHCPHCPSVCVPVHSEMLLRVQQLVQDLKKLTCQVATLNNNASTEGTCCPVNWVEHQDSCYWFSHSGMSWAEAEKYCQLKNAHLVVINSREEQNFVQKYLGSAYTWMGLSDPEGAWKWVDGTDYATGFQNWKPGQPDDWQGHGLGGGEDCAHFHPDGRWNDDVCQRPYHWVCEAGLGQTSQESHHHHHH,glycan array binding signal (z-score),Neu5Ac(a2-8)Neu5Ac,-0.501
same,glycan array binding signal (z-score),[1],-0.451
same,glycan array binding signal (z-score),[2],-0.482
same,glycan array binding signal (z-score),[3],-0.509
same,glycan array binding signal (z-score),[4],-0.505
same,glycan array binding signal (z-score),[5],3.87
same,glycan array binding signal (z-score),[6],2.47
same,glycan array binding signal (z-score),[7],-0.522
same,glycan array binding signal (z-score),[8],-0.519
same,glycan array binding signal (z-score),[9],-0.455
same,glycan array binding signal (z-score),[10],2.45
same,glycan array binding signal (z-score),[11],2.95
same,glycan array binding signal (z-score),[12],-0.521
same,glycan array binding signal (z-score),[13],-0.488
same,glycan array binding signal (z-score),Neu5Ac(b2-6)GalNAc,1.32
same,glycan array binding signal (z-score),[14],0.093
same,glycan array binding signal (z-score),[15],-0.49
same,glycan array binding signal (z-score),[16],-0.357
same,glycan array binding signal (z-score),[17],-0.406
same,glycan array binding signal (z-score),[18],-0.285
same,glycan array binding signal (z-score),Neu5Gc(a2-3)Gal(b1-4)Glc,-0.459
same,glycan array binding signal (z-score),[19],-0.279
same,glycan array binding signal (z-score),[20],-0.416
same,glycan array binding signal (z-score),[21],2.01
same,glycan array binding signal (z-score),[22],-0.392
same,glycan array binding signal (z-score),Neu5Gc(a2-6)GalNAc,2.81
same,glycan array binding signal (z-score),[23],-0.517
same,glycan array binding signal (z-score),[24],-0.515
same,glycan array binding signal (z-score),[25],-0.506
same,glycan array binding signal (z-score),[26],-0.501
same,glycan array binding signal (z-score),[27],-0.499
